Article PMC8585052
Results are given in words; binding and its absence hold for the method and conditions named. Binding seen in cells or lysates may run through a third protein. Some entries that bind do so weakly or less than the wild type. Tags and fused reporters may be left off the sequences shown. Blank lines part the entries; values can stand above or below the binder they belong to.

Chains of the proteins cited; added tags and fusions are not shown. Lines headed by an entry give the natural chain unless they say otherwise; changes in a name come on top. A line that says so, or that is headed by a name, gives the form on record, which may keep a tag or linker. Residues count along the entry.
UniProt Q96EP0: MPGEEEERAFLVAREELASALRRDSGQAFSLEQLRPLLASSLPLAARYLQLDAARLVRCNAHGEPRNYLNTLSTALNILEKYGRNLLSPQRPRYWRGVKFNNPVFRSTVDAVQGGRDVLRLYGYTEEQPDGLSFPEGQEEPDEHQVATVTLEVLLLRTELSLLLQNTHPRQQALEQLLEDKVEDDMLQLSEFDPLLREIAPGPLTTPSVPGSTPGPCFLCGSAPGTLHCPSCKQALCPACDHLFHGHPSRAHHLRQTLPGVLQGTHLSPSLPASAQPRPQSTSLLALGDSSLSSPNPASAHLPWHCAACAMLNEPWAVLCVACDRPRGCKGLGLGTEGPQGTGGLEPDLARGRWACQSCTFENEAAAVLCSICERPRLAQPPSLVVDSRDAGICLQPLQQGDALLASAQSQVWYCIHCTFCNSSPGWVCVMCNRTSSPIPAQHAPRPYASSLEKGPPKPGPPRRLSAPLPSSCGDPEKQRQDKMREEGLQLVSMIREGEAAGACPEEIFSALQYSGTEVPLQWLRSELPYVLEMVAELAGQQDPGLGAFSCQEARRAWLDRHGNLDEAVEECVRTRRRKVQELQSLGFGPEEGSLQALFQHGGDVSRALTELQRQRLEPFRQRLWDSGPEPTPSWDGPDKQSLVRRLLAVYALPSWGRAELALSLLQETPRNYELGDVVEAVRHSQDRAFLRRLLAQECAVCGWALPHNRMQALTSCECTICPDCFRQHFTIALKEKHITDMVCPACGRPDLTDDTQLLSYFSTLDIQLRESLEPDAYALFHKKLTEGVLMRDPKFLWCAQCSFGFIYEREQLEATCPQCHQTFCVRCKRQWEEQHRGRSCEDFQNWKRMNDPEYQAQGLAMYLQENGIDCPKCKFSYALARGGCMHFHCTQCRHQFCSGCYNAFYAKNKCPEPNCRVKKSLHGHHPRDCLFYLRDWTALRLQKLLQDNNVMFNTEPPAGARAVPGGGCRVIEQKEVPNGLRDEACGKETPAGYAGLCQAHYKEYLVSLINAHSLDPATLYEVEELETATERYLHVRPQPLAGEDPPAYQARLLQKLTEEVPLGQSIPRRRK
FLAG-tagged HOIP N563: residues 1-563 of Q96EP0
FLAG-tagged HOIP N349: residues 1-349 of Q96EP0

Columns and labels:
Experiment in all cases: co-IP; tagged proteins co-transfected into HEK293 cells, lysed after 48 h (50 mM Tris-HCl pH 7.5, 10 mM MgCl2, 100 mM NaCl, 0.5% Nonidet P40, 10% glycerol); immunoprecipitated overnight at 4 °C with the indicated antibody plus protein A/G agarose or anti-FLAG M2 gel; Western blot
[1] = molecular target: FLAG-tagged HOIP N349 (human) (UniProt Q96EP0)
[2] = molecular target: FLAG-tagged HOIP N563 (human) (UniProt Q96EP0)
[3] = molecular target: FLAG-tagged EGFR kinase domain (human) (UniProt P00533)
FLAG-tagged HOIP (human) = FLAG-tagged HOIP (human) (UniProt Q96EP0)

binding [1]: no binding
binding [2]: binds
B1: HA-tagged PKP2 N348 (domain or fragment, UniProt Q99959-2 1-348)
chain: MAAPGAPAEYGYIRTVLGQQILGQLDSSSLALPSEAKLKLAGSSGRGGQTVKSLRIQEQVQQTLARKGRSSVGNGNLHRTSSVPEYVYNLHLVENDFVGGRSPVPKTYDMLKAGTTATYEGRWGRGTAQYSSQKSVEERSLRHPLRRLEISPDSSPERAHYTHSDYQYSQRSQAGHTLHHQESRRAALLVPPRYARSEIVGVSRAGTTSRQRHFDTYHRQYQHGSVSDTVFDSIPANPALLTYPRPGTSRSMGNLLEKENYLTAGLTVGQVRPLVPLQPVTQNRASRSSWHQSSFHSTRTLREAGPSVAVDSSGRRAHLTVGQAAAGGSGNLLTERSTFTDSQLGNAD

binding [3]: binds
binding (FLAG-tagged HOIP (human)): binds
B2: HA-tagged PKP2 (protein, UniProt Q99959-2 1-837)
chain: MAAPGAPAEYGYIRTVLGQQILGQLDSSSLALPSEAKLKLAGSSGRGGQTVKSLRIQEQVQQTLARKGRSSVGNGNLHRTSSVPEYVYNLHLVENDFVGGRSPVPKTYDMLKAGTTATYEGRWGRGTAQYSSQKSVEERSLRHPLRRLEISPDSSPERAHYTHSDYQYSQRSQAGHTLHHQESRRAALLVPPRYARSEIVGVSRAGTTSRQRHFDTYHRQYQHGSVSDTVFDSIPANPALLTYPRPGTSRSMGNLLEKENYLTAGLTVGQVRPLVPLQPVTQNRASRSSWHQSSFHSTRTLREAGPSVAVDSSGRRAHLTVGQAAAGGSGNLLTERSTFTDSQLGNADMEMTLERAVSMLEADHMLPSRISAAATFIQHECFQKSEARKRVNQLRGILKLLQLLKVQNEDVQRAVCGALRNLVFEDNDNKLEVAELNGVPRLLQVLKQTRDLETKKQITGLLWNLSSNDKLKNLMITEALLTLTENIIIPFSGWPEGDYPKANGLLDFDIFYNVTGCLRNMSSAGADGRKAMRRCDGLIDSLVHYVRGTIADYQPDDKATENCVCILHNLSYQLEAELPEKYSQNIYIQNRNIQTDNNKSIGCFGSRSRKVKEQYQDVPMPEEKSNPKGVEWLWHSIVIRMYLSLIAKSVRNYTQEASLGALQNLTAGSGPMPTSVAQTVVQKESGLQHTRKMLHVGDPSVKKTAISLLRNLSRNLSLQNEIAKETLPDLVSIIPDTVPSTDLLIETTASACYTLNNIIQNSYQNARDLLNTGGIQKIMAISAGDAYASNKASKAASVLLYSLWAHTELHHAYKKAQFKKTDFVNSRTAKAYHSLKD
